The chains are these.
B1: chr4:41265268:41265269:+_ENSG00000154277_ENST00000284440|hu_mus|FALSE|FALSE (ssRNA)
RNA: GGGAGUUCUACAGUCCGACGAUCAAAGGGCAUUCGCCCAUCGAGCUCGUACAGAUGGCCGUCCACGUUGUUGAACAGAAUAAAAUGGAAAUUCACUUUGUCAUCUACCCGACACUGGCCCUCCUGGGCCACGGAGUCAUGGGCCAACAGAGGAUUGAGCAUCA
B2: chr1:21069516:21069517:-_ENSG00000127483_ENST00000312239|hu_mus|motif|central (ssRNA)
RNA: GGGAGUUCUACAGUCCGACGAUCUAAGUGCCACAAGGAAGAAUAAAUGAUAAGCAGAAACUGUAGUUCUCAAGUAAGAAGCGGGUACUAUUUUACACAACCUCACAACCCUAAACAAAUACAAACAAGAAGAGGGCUGGGUAGCAACAGAGGAUUGAGCAUCA
B3: 23955877_23955997_4845_CDS_ENSMUSG00000039218_ENSMUST00000088621|mouse|control|control (ssRNA)
RNA: GGGAGUUCUACAGUCCGACGAUCCCGGCGUCGAGGUGGUGUGUGAGACUUUGUCUUUGGCUCUAUUGAGGACCUGGAACCUCUUCGAGCAGUUCUGGAUUUGGGGGCGUGUUCUGGAGAAGACUCAGAACUACUGCUUCCUUCCAACAGAGGAUUGAGCAUCA
B4: chr6:52962840:52962841:+_ENSG00000112146_ENST00000323557|hu_hu|motif|central (ssRNA)
RNA: GGGAGUUCUACAGUCCGACGAUCAUAAAUAUGCUUAAGCAACUUAAUUCCAACUUAAUUUCAAAACACCCCAGGAAUCAACGGUCCCUUUAAAUAAAAAAAAUAAUCAAUUUAUAUUCUUCUUAAAAGAACUCCAACAAUUUACAACAGAGGAUUGAGCAUCA
B5: 182817210_182817330_105_3pUTR_ENSG00000078070_ENST00000265594|human|control|control (ssRNA)
RNA: GGGAGUUCUACAGUCCGACGAUCCGCAGAGGCCGCCGCCAUGUCCCUGGAGCCCGGCCACUCCGUGACUCCCCAGUACAGAGGCAGCUGCGUCCCACACGCCAAACCCGUUCCUCCACUACGAAGCCUCGUGACCCCCGCCGGCAACAGAGGAUUGAGCAUCA
B6: chr4:115894766:115894767:+_ENSMUSG00000028698_ENSMUST00000030464|mus_hu|mus_mus_mus_hu_True|18_48 (ssRNA)
RNA: GGGAGUUCUACAGUCCGACGAUCUUCCACACGGAAAUGUACUUCGGGUUUUCCAACGGCCAGUACCAGUCCGGCCAAACUACCCGAUGAGGACAAGCCCCCUCUCUCCUACAGAACUAAAGCACCCGCCCCCGAACUUUCAAGCAACAGAGGAUUGAGCAUCA
B7: chr2:4544944:4544945:-_ENSMUSG00000039449_ENSMUST00000035721|mus_mus|motif|central (ssRNA)
RNA: GGGAGUUCUACAGUCCGACGAUCCCUUGAUAUGCUGGUGUUCUGAACUUAGGCUGGUAUAACAGCCAUCUUUCGACCUUCGGUCUCCUAUCAAUUCAUCUGUCCAGAAAGAUGACAACCAUACUCUGCUUAGAAAGAAAAGCACAACAGAGGAUUGAGCAUCA
B8: chr5:128440902:128440903:+_ENSG00000066583_ENST00000173527|hu_mus|hu_hu_hu_mus_True|1_48 (ssRNA)
RNA: GGGAGUUCUACAGUCCGACGAUCUUGAACGGUGCUGCCAAGUCCUUUGGGGUAUUGUUCCGUUAUGAUAACUGGAAUCCCUAAGAUCCGGGCCCCUUGCAACAGUCUCUGUCCCACACUAAUGAUGUCCCCAAAGUACUUGAUCAACAGAGGAUUGAGCAUCA
B9: chr2:10930004:10930005:-_ENSG00000143870_ENST00000272227|hu_hu|motif|central (ssRNA)
RNA: GGGAGUUCUACAGUCCGACGAUCGUCAUAAUCCACAGGAGACUCGCCUUUCUGAAAUAUCUUGAUUGUAGGAAAUCCUCGGAUCCCGUAUCGGGAGGCCAGAACCUGAUUGACUGUAGCAUCCACAGCUGCCAGUUUCACUUUCAACAGAGGAUUGAGCAUCA
B10: chr16:45382771:45382772:-_ENSMUSG00000022661_ENSMUST00000163230|mus_mus|mus_mus_mus_hu_True|68_108 (ssRNA)
RNA: GGGAGUUCUACAGUCCGACGAUCCUGAGUGUUAUUGUAAGACAAAUGGACAGGGAGGGCAUGCUUCUGUAAAGAUGUGAGCUAUUGUCUAAGACUAACAAUAUUUAUCUAGCUAUAAAAAUAAGUUAAAUGAAUAAGUUAAGACAACAGAGGAUUGAGCAUCA
B11: chr4:109034340:109034341:+_ENSMUSG00000028552_ENSMUST00000102729|mus_mus|motif|central (ssRNA)
RNA: GGGAGUUCUACAGUCCGACGAUCUUCUUCUCUAGCUUUCAACAGUUCUUCCUCAUAACUGGAGAUCUGAGAUUCUUGACGGGUUAUUUCUGCUUUCAGGGAAGAAAUCAGCUGGGCCUCCUCAGCACACUUUUUCCUGACUUCCAACAGAGGAUUGAGCAUCA
B12: 100727982_100729460_2297_CDS_ENSG00000136021_ENST00000360820|human|control|control (ssRNA)
RNA: GGGAGUUCUACAGUCCGACGAUCAAUAUUUGUAACUUUCAUCUCCUCAGAAACAUUCAUUUGAUUUCCUAUAUCCAAAGAUUUCUGCUGUUCUUGCAUUAUAUGAAGUUGCUCCAGUUUAGUCUUAUGUUCAGACUCCAAUCUCAACAGAGGAUUGAGCAUCA
B13: chr8:117878989:117878990:-_ENSG00000164754_ENST00000297338|hu_hu|hu_hu_hu_mus_True|18_28 (ssRNA)
RNA: GGGAGUUCUACAGUCCGACGAUCCCAGAGGCCCUCGUUUACUGAGGACAAAAUGUGCGUAGAACAUUUUUCUUAUUUGCUAUGAAAUAAGAAGAAACCUGGAUCUCCCGCUGGGAGUUGGGCGGGCGGGUGGCCCGGGGAGGGCAACAGAGGAUUGAGCAUCA
B14: chr3:148802587:148802588:-_ENSG00000071794_ENST00000310053|hu_mus|hu_hu_hu_mus_False|18_28 (ssRNA)
RNA: GGGAGUUCUACAGUCCGACGAUCUCCAACAACUUGUCCUCUCAUAGUUCCAAAUAAAACCAAAUCUUGCUCUUCAUCACUCGUUAGGAAGUCAUCUGGAGGAAUAACAUCUUGGAAUUCAAAACGUGGCAAGAAAGUUGAGUACAACAGAGGAUUGAGCAUCA

From article PMC12136788 come the findings set out here.

The list shows a part of the results.

For this assay, the target named is T1, UNK ZnF1-3 (human, UniProt Q9C0B0 31-174).
T1 sequence: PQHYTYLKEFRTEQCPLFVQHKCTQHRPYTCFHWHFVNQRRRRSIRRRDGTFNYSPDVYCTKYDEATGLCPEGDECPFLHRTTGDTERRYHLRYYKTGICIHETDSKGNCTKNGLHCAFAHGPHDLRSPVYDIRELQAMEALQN
The assay can be described thus: nsRBNS (natural sequence RNA bind-n-seq); RBNS binding buffer (assumed for nsRBNS): 25 mM Tris pH 7.5, 150 mM KCl, 3 mM MgCl2, 0.01% Triton X-100, 500 ug/ml BSA, 20 U/ml SUPERase-In, 4 C; UNK is unkempt and MSI1 is Musashi-1; names of the RNAs are library labels; protein concentration not given here; high values mean tight binding.
As to B1, the binding signal was found to be 1.01 enrichment R. Under B2 stands 1.5 enrichment R. Under B3 stands 0.717 enrichment R; under B4, 0.895 enrichment R. Molecule B5 registered a binding signal of 0.822 enrichment R. Molecule B6 had a binding signal of 0.938 enrichment R. Under B7 stands 0.837 enrichment R; under B8, 0.589 enrichment R.

B9 gave a binding signal of 1.25 enrichment R. The same measure for B10: 1.5 enrichment R; for B11: 0.56 enrichment R; for B12: 0.476 enrichment R. Under B13 stands 1.11 enrichment R.

For B14, the binding signal came to 1.55 enrichment R.
